45 compounds from paper PMC4336329 (PLoS ONE, 2015) can be followed below.

SMILES strings stand for the structures. In all, about 310,000 compounds went through this assay and about 14,000 (4.5%) showed an effect of 50% or more. Effects have a minus sign here. The list shows a part of the results.
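Further: peak tail current of the secondary pulse compared with the same well before compound.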

For the experiment, the target named is human ether-à-go-go-related gene (hERG) potassium channel (human, UniProt Q12809). Briefly: primary screen, population patch clamp on CHO cells stably expressing hERG.
human ether-à-go-go-related gene (hERG) potassium channel, sequence (Q12809 whole entry, looked up): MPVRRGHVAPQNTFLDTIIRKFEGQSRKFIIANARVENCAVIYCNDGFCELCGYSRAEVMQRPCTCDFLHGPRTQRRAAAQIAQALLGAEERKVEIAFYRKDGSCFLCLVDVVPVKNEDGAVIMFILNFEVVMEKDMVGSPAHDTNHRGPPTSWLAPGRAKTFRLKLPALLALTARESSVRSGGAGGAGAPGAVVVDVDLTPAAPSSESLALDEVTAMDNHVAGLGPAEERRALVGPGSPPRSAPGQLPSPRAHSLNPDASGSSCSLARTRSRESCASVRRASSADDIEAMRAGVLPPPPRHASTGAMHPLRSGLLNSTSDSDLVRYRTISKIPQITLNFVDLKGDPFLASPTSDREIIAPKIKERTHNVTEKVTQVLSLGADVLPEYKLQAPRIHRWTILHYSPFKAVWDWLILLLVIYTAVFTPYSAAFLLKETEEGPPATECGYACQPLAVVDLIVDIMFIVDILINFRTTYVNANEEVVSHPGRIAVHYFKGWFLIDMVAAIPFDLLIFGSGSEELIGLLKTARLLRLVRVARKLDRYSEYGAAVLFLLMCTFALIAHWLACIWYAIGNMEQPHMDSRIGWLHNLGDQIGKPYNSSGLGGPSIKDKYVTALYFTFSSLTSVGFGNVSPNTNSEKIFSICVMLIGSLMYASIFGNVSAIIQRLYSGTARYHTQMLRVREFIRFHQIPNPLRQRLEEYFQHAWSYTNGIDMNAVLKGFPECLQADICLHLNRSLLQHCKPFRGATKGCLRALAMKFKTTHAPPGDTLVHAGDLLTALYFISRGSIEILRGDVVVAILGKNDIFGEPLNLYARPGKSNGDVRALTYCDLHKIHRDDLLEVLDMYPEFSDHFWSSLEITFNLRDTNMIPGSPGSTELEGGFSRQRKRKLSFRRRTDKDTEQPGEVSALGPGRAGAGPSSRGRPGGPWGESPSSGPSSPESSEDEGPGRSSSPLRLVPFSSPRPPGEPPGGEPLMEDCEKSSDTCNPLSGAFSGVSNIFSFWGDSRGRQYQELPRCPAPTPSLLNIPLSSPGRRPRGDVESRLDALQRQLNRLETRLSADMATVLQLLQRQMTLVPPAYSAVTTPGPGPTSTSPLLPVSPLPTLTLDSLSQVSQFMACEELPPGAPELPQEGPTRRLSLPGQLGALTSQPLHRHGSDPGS
Take `Cc1nc(CCNC(=O)Cc2ccccc2)cs1`: the “hERG current change (%, negative = inhibition) at 10uM” value is listed as 6.52%. Then `COc1ccc(OC)c(C(=O)N2CCCC(Nc3ccc(F)cc3)C2)c1` (stereo not drawn), with -8.55%. Next, `CCN1CCN(CCCNC(=O)c2cc3cc4ccc(OC)cc4nc3o2)CC1`: -17.1%; `Cc1cccc(N2CCN(C(=O)Cc3cn(C)c4ccccc34)CC2)c1C`: -7.32%.

For `Br.O/C(=C\Sc1nnc(Cc2ccccc2)o1)c1ccc(Br)cc1`, the “hERG current change (%, negative = inhibition) at 10uM” value is given as 11.8%. Next, `CN1C(=O)C(=Cc2ccc(Sc3ccccc3)o2)C(=O)N(C)C1=S`: 20.3%; `CS(=O)(=O)c1ccc(C(=O)Nc2ccc(N3CCCCC3)cc2)c(Cl)c1`: 34.1%. In the case of `CC(C)(C)NS(=O)(=O)c1ccc(NC(=O)Cc2ccccc2[N+](=O)[O-])cc1`, the “hERG current change (%, negative = inhibition) at 10uM” value stood at 1.66%. Then `Cc1csc(SC(C)C(=O)NCc2ccc3c(c2)OCO3)n1` (stereo not drawn), with -2.04%; and `Cc1cc(S(=O)(=O)Nc2ccc(N3CCOCC3)cc2)ccc1Br`, with 7.38%. Then `CCOc1ccc(-n2c(SCC(=O)NC)nnc2-c2ccco2)cc1`, with -27.5%.

On to `COc1ccc2c(c1)c(=O)oc1c(C)c(OCc3cc(C(=O)O)oc3C)ccc12`, for which the “hERG current change (%, negative = inhibition) at 10uM” value stood at 22.5%.

As for `O=S(=O)(NCCCN1CCOCC1)c1ccc2ccccc2c1`, the “hERG current change (%, negative = inhibition) at 10uM” value was found to be 0.325%. Then `COC(=O)c1cc(S(=O)(=O)NCC2CCN(Cc3cc(C)ccc3C)CC2)c[nH]1`, with -11%. Then `O=C1CCCCC1C(=O)c1ccccc1` (stereo not drawn), with 17.3%. Next, `Cl.Oc1ccc(COCc2ccccc2)c2cccnc12`: -6.99%. As to `CCCOC(=S)N/C(=N\S(=O)(=O)c1ccccc1)c1ccccc1`, the “hERG current change (%, negative = inhibition) at 10uM” value is reported as 10.7%. Next, `COc1ccc(-c2cn(-c3ccccc3)c(=S)[nH]2)cc1OC`: 16.1%; `CC12CCC(=O)N1C(C(=O)Nc1ccc(Cl)c(S(=O)(=O)N3CCCCC3)c1)CS2` (stereo not drawn): -34.3%; `CN(C)C(=O)Oc1ccc2c(c1)O/C(=C\c1cccc(Cl)c1)C2=O`: 17.9%. As for `CSc1cccc(-n2ccc(=O)c(C)c2C)c1`, the “hERG current change (%, negative = inhibition) at 10uM” value is reported as 18.2%. Then `CS(=O)(=O)NNC(=O)Cn1nnc(-c2cc(C(F)(F)F)cc(C(F)(F)F)c2)n1`, with 19.7%; and `CCN(Cc1nc2ccccc2c(=O)[nH]1)C(=O)CN1C(=O)NC2(CCCCC2C)C1=O` (stereo not drawn), with -21.7%. Next, `CC(OC(=O)CCCOc1ccccc1)C(=O)NC(N)=O` (stereo not drawn): 9%.

Consider `CCOc1ccc(C(C)(C)C)cc1S(=O)(=O)Nc1ccncc1`, for which the “hERG current change (%, negative = inhibition) at 10uM” value turned out to be 17%. Next, `CC(C)C(C(=O)NCc1ccco1)N(Cc1ccco1)C(=O)CNS(=O)(=O)c1ccc(F)cc1` (stereo not drawn): 10.9%; `Cn1c(=O)n(CCc2ccccc2)c(=O)c2c1nc1n2CCN1Cc1ccco1`: -55.5%; `COc1ccccc1NC(=O)C1CCC(CNc2c(N3CCCCC3)c(=O)c2=O)CC1` (stereo not drawn): 7.64%.

For the compound `Fc1ccc(NC(=S)N/N=C/c2ccc(F)c(F)c2)cc1`, the “hERG current change (%, negative = inhibition) at 10uM” value is reported as 13.1%. Next, `CCCCN(C)CCNC(=O)CCn1nc(-c2ccc(Cl)cc2)ccc1=O`: -67.1%.

For `O=C(Nc1ccc(S(=O)(=O)Nc2ncccn2)cc1)C1COc2ccccc2O1` (stereo not drawn), the “hERG current change (%, negative = inhibition) at 10uM” value amounted to 11.1%. Then `C/C(=N\NC(=O)c1ccc(-n2cnnn2)cc1)c1ccc(Cl)cc1`, with -9.1%. Next, `CCCNC(=O)c1nnsc1Sc1ccc(Cl)cc1`: 5.23%. Next, `CC(=O)Nc1ccc(/C(C)=N/NC(=O)c2ccccc2Cl)cc1`: 6.29%; `O=C(NCC(c1cccnc1)N1CCN(c2ccccc2F)CC1)C1CCCCC1` (stereo not drawn): -17.5%. Regarding `COc1ccccc1S(=O)(=O)c1c(C)cc(C)[nH]c1=O`, the “hERG current change (%, negative = inhibition) at 10uM” value came to 11%. Consider `COc1ccc(-c2c(C#N)c(N)nc3c2c(=O)n(C)c(=O)n3C)cc1`, for which the “hERG current change (%, negative = inhibition) at 10uM” value is on record as -0.268%. For the compound `Brc1cccc(-c2cnco2)c1`, the “hERG current change (%, negative = inhibition) at 10uM” value turned out to be 8.78%. Next, `Cc1cc(C)c(S(=O)(=O)Nc2ccc(Cl)cn2)c(C)c1`: 9.35%; `COc1cccc2sc(Nc3nc(-c4ccccn4)cs3)nc12`: 21.4%; `CCCCC1OC23CCCCC2C(C#N)(C#N)C1(C#N)C(=N)O3` (stereo not drawn): 3.76%. Next, `COc1ccc(C(=O)COC(=O)CNC(=O)c2ccc(Cl)cc2Cl)c(OC)c1`: 2.46%. Next, `COCCN1C(=O)N[C@@H](c2ccccc2)C(C(=O)OC)=C1C`: 12.6%; `CC(=O)c1ccc(NC(=O)c2ccc(C)c(S(=O)(=O)N3CCOCC3)c2)cc1`: 2.2%.

With `O=C(N/C(=C/c1ccccc1)C(=O)N1CCCCC1)c1ccc(Br)o1`, the “hERG current change (%, negative = inhibition) at 10uM” value is listed as -7.64%.
